# Assay results as given in PubChem BioAssay (NCATS).
# Inconclusive means that the source gave no clear call. Such entries were picked first, then a sample of the others. For some assays here: Potencies of inconclusive entries are left out as doubtful fits. For some assays here: A note “side channel” means that the fit belongs to a control or component signal, not to the main read-out. Activity calls are given as the source filed them. Unless noted, calls follow the shape of the dose curve; as a rule, active = well fitted curve in the direction sought with a large enough effect; inconclusive = small, poorly fitted or top-dose-only effect, or another doubt; inactive = no such curve, though single readings can be large; an effect the other way counts as inactive or inconclusive.
# Columns and labels:
# [1] = AP1 Signaling Pathway (AID 357; active = well fitted curve in either direction with a large enough effect, not every such curve was filed as active; inconclusive = small, poorly fitted or top-dose-only effect, or another doubt;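 also: ME-180 reporter cells stimulated with EGF at its EC50 level; top concentration of the series differs between compounds; % is scaled to controls: 0 for no effect and ±100 for the full control effect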); conditions: ME-180 AP-1-bla reporter, EGF-induced, beta-lactamase ratio, 5 h; at 7.69 µM (top of the series) unless noted
# How it was run: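 AP-1-bla ME-180 cells, Opti-MEM + 0.5% dialyzed FBS, plated overnight 37 °C. Cpd titration + EC50 EGF, 5 h 37 °C. CCF4 2.5 h RT; ex 405, em 460/530 ratio → %activity, AC50.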
# [2] = target: 3',5'-cyclic-AMP phosphodiesterase 4B (Homo sapiens) (UniProt Q07343); test: qHTS Assay for Inhibitors of PDE-IV (AID 607; active = well fitted activation curve with a large enough effect in the main read-out, with a control signal flat, not every such curve was filed as active; inconclusive = small, poorly fitted or top-dose-only effect, or effect the other way, or a change in a side signal; also: potency is read from the fitted curve at half-maximal effect; as to activation (PDE inhibition): % of control where 0% means no effect); conditions: HEK293 ACTOne CNG channel cells, membrane potential fluorescence; activation (PDE inhibition): at 22.9 µM (top of the series)
# How it was run: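 Cell-based read-out of cAMP via a modified cyclic nucleotide-gated channel and membrane potential dye (535/590 nm) in HEK293 cells expressing PDE4 endogenously. Compounds tested up to 22.9 uM final; 100 uM RO 20-1724 reference.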
# [3] = target: Cytochrome P450 3A4 (Homo sapiens) (UniProt P08684); test: qHTS Assay for Inhibitors and Substrates of Cytochrome P450 3A4 (AID 884); conditions: recombinant CYP3A4, Luciferin-PPXE luminescence; activity change, negative = inhibition: at 57.1 µM (top of the series); also: potency is read from the fitted curve at half-maximal effect; nearly all actives have a fitted effect of over 50% in size
# How it was run: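 Luminescent readout of luciferin produced by CYP3A4 (20 nM) dealkylation of Luciferin-PPXE, 25 uM (its KM). NADPH-driven reaction ran 60 min at RT after 10 min compound preincubation; data scaled to 57 uM ketoconazole as 100% inhibition.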
# [4] = Primary qHTS for small molecule stabilizers of the endoplasmic reticulum resident proteome: Secreted ER Calcium Modulated Protein (SERCaMP) assay (AID 1508630); conditions: SH-SY5Y GLuc-SERCaMP (Gaussia luciferase released on ER calcium loss) secretion, thapsigargin, luminescence; activity change, negative = inhibition: at 38.4 µM (top of the series) unless noted; also: potency is read from the fitted curve at half-maximal effect; as to activity change, negative = inhibition: % is scaled to controls: 0 for no effect and ±100 for the full control effect
# How it was run: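 The SH-SY5Y reporter protocol was run at 3 concentrations up to 38.3 uM (primary) or 11 concentrations (follow-up): 16 h compound, 100 nM thapsigargin for 4 h, then extracellular luciferase luminescence.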
# [5] = NFAT Signaling Pathway (AID 444; active = well fitted curve in either direction with a large enough effect, not every such curve was filed as active; inconclusive = small, poorly fitted or top-dose-only effect, or another doubt;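 also: carbachol stimulus at about its EC50 of 1 µM final; % is scaled to controls: 0 for no effect and ±100 for the full control effect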); conditions: Jurkat NFAT-bla M1, carbachol, beta-lactamase ratio, 5 h; at 7.69 µM (top of the series) unless noted
# How it was run: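 Read-out: CCF4 FRET ratio (460 nm/530 nm) after 1 h RT dye loading, used for %activity and AC50 from titration series. Cells: Jurkat NFAT-β-lactamase/M1 line, treated with compound plus 1 uM carbachol for 5 h, 37 °C.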
# [6] = target: Mitogen-activated protein kinase 10 (Mus musculus) (UniProt Q61831); test: JNK3 AlphaScreen Assay (AID 530; active = well fitted curve in either direction with a large enough effect, not every such curve was filed as active; inconclusive = small, poorly fitted or top-dose-only effect, or another doubt;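 also: kinase came from lysate of stimulated human HepG2 cells; signal reports phosphorylation of biotinylated GST-cJun 1-79 at Ser73 with 10 µM ATP; potency is read from the fitted curve at half-maximal effect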); conditions: JNK3 lysate, c-Jun phosphorylation; activity change, negative = inhibition: at 57.1 µM (top of the series)
# How it was run: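 qHTS titrations with 15 min compound pre-incubation before adding ATP (10 uM final). Read-out: AlphaScreen of Ser73-phosphorylated biotin-GST-cJun using HepG2 lysate JNK3 activated by IL-1β and TNFα.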
# [7] = target: Cytochrome P450 3A4 (Homo sapiens) (UniProt P08684); test: qHTS Assay for Activators of Cytochrome P450 3A4 (AID 885); also: potency is read from the fitted curve at half-maximal effect; nearly all actives have a fitted effect of over 65% in size
# How it was run: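 Luminescent readout of luciferin formed from 25 uM Luciferin-PPXE (KM level) by 20 nM CYP3A4 in 200 mM KPO4, with 60 min NADPH-driven reaction at room temperature after 10 min compound exposure. Ketoconazole (57 uM) defined 100% inhibition.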
# [8] = qHTS Assay for Identification of Small Molecule Agonists for Hypoxia Response Element Signaling Pathway (AID 914; active = well fitted activation curve with a large enough effect in the signal ratio, with a control signal flat, not every such curve was filed as active; inconclusive = small, poorly fitted or top-dose-only effect, or effect the other way, or a change in a side signal; the % refers to the signal ratio; also: potency is read from the fitted curve at half-maximal effect); conditions: ME-180 (cervical carcinoma) HRE-bla reporter, beta-lactamase ratio, CoCl2, 17 h; activation: active compounds read high
# How it was run: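 Positive modulation of EC50 CoCl2-induced hypoxia response element signaling is measured in ME-180 cells with a beta-lactamase reporter. Compounds are titrated, incubation runs 17 hours, and %Activity derives from the blue/green ratio.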
# [9] = target: Cytochrome P450 2D6 (Homo sapiens) (UniProt P10635); test: qHTS Assay for Inhibitors and Substrates of Cytochrome P450 2D6 (AID 891);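 also: luciferin methyl ether substrate demethylated by CYP2D6 with NADPH regeneration; potency is read from the fitted curve at half-maximal effect; nearly all actives have a fitted effect of over 60% in size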
# How it was run: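 Luminescent read-out of luciferin formed by 5 nM human CYP2D6 demethylating 30 uM Luciferin-ME EGE (Km level) over 60 min at room temperature after NADPH regeneration addition. Data normalized to full inhibition by 1.43 uM quinidine.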
# [10] = target: Ubiquitin carboxyl-terminal hydrolase 1 (Homo sapiens) (UniProt O94782); test: Inhibitors of USP1/UAF1: Pilot qHTS (AID 504865);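 also: rhodamine fluorescence freed from ubiquitin-rhodamine substrate followed over time; top concentration of the series differs between compounds; % is scaled to controls: 0 for no effect and ±100 for the full control effect; nearly all actives have a fitted effect of over 35% in size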
# How it was run: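 In 50mM HEPES pH 7.8 containing 0.5mM EDTA, 1mM TCEP, 0.1 mg/ml BSA and 0.01% Tween-20, 1nM USP1/UAF1 is exposed to compound for 15 min, then Ub-Rho (150nM final) is added and fluorescence is read over time.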
# Tags tell the direction and shape of the fitted curve or compound fluorescence and quenching.
# Sequence of UniProt Q07343 (Q07343 whole entry, looked up): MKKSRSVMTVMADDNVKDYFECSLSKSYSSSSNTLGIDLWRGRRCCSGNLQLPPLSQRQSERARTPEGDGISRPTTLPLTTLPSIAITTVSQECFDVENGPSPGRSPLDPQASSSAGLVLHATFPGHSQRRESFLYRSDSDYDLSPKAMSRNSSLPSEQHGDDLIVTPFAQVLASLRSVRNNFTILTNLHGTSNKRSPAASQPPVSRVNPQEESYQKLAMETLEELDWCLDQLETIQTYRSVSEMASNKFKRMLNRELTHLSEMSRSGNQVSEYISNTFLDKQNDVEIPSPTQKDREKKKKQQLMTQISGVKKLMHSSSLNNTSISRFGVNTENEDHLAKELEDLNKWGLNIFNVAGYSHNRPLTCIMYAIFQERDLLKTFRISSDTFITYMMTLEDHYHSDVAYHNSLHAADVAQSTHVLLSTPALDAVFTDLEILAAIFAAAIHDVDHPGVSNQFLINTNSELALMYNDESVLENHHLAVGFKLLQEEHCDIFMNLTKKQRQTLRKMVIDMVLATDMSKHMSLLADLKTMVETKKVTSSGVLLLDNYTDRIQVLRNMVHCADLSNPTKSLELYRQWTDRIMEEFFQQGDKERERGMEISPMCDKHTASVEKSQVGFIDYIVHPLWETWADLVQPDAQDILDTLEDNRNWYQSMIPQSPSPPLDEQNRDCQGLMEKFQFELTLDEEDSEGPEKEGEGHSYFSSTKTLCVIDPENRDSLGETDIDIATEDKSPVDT
# Sequence of UniProt P08684 (P08684 whole entry, looked up): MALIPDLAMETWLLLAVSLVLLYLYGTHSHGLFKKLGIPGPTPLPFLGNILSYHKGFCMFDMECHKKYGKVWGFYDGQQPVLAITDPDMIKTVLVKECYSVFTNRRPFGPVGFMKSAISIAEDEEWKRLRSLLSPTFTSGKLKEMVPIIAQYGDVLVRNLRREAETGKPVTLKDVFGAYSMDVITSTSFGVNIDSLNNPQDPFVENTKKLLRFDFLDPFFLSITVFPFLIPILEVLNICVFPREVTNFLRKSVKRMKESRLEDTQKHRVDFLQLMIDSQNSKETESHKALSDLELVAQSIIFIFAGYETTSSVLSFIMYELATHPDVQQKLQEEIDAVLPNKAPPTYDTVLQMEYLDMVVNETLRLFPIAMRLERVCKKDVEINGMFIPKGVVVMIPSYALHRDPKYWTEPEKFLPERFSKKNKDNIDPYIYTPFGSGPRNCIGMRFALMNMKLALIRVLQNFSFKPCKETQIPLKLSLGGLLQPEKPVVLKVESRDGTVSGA
# Sequence of UniProt O94782 (O94782 whole entry, looked up): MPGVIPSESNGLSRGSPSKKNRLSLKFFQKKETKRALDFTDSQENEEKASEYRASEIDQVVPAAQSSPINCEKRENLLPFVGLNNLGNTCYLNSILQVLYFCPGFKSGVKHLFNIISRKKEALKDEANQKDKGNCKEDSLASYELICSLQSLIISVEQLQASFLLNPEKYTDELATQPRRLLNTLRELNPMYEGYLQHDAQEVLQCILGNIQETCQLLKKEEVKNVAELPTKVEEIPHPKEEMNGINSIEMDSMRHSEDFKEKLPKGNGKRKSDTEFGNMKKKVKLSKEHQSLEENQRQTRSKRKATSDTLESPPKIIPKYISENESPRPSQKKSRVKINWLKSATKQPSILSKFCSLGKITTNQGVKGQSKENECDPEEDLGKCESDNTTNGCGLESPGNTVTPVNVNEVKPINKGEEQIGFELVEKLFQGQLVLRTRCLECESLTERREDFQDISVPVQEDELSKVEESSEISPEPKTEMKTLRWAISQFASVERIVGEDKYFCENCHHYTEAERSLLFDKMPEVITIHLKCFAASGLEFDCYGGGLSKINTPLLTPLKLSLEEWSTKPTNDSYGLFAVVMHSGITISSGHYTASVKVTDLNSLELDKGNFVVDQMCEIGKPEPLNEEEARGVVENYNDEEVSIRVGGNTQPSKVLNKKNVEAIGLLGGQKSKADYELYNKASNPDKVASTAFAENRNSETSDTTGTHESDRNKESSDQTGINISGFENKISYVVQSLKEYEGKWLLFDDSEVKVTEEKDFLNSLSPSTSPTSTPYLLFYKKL
# Sequence of UniProt P10635 (P10635 whole entry, looked up): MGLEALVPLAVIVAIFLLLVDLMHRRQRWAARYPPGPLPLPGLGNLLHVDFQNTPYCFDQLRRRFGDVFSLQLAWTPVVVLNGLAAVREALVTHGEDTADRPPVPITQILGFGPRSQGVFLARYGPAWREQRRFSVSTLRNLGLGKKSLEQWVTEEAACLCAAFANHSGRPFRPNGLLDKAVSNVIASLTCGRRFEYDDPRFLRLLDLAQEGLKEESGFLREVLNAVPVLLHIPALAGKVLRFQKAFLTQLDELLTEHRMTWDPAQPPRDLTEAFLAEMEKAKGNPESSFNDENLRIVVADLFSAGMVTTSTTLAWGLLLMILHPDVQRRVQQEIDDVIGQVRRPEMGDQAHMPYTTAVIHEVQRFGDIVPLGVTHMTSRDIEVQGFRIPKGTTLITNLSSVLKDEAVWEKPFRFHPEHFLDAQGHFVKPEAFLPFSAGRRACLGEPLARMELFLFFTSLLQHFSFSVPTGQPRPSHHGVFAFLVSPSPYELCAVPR
smiles,measurement,setting,value
COc1cccc(Cn2c(=O)c(-c3cccc(F)c3)nc3cncnc32)c1,"activity change, negative = inhibition",[1],inactive: -9.03%
same,Potency,[2],inactive
same,Potency,[3],"inconclusive [inhibitor, full curve]"
same,Potency,[4],inactive
Clc1ccccc1-c1ccc2ncnc(NCCN3CCOCC3)c2c1,"activity change, negative = inhibition",[1],inconclusive: 39.9% [activator]
same,Potency,[2],"inconclusive [activator, partial curve]"
same,Potency,[4],"inconclusive [inhibitor, single point]"
CN1CCN(c2ncc3nc(-c4ccc(Cl)cc4)c(=O)n(Cc4ccc(F)cc4)c3n2)CC1,"activity change, negative = inhibition",[1],inconclusive: 137% [activator]
same,"activity change, negative = inhibition",[5],inconclusive: 125% [activator]
same,Potency,[6],"inconclusive [activator, partial curve]"
same,Potency,[7],active: 15.8 µM
same,Potency,[8],"inconclusive [fluorescent, side channel, single point]"
same,Potency,[4],"inconclusive [inhibitor, single point]"
COc1ccccc1CNc1ncnc2ccc(-c3ccoc3)cc12,"activity change, negative = inhibition",[1],inconclusive: -42.9% [inhibitor]
same,Potency,[2],"inconclusive [activator, single point]"
same,Potency,[9],active: 3.16 µM
same,Potency,[8],"inconclusive [inhibitor, partial curve]"
same,Potency,[10],inactive
same,Potency,[4],"inconclusive [inhibitor, single point]"
Cn1cccc1C(=O)N1CCC2(CCCN(C(c3ccccc3)c3ccccc3)C2)CC1,"activity change, negative = inhibition",[1],inconclusive: 41.1% [activator]
same,"activity change, negative = inhibition",[5],inconclusive: -52.6% [inhibitor]
same,Potency,[3],"inconclusive [inhibitor, full curve]"
same,Potency,[4],inactive
